# According to the supplement of paper PMC3334620:
# In all, about 33,000 sequences were measured (“E-score (-0.5 to 0.5)”: median about -0.04, highest 2% from about 0.36 on). The list shows a part of the results.
# Target: T1, Hmlalpha2 (UniProt P0CY09)
# T1 sequence: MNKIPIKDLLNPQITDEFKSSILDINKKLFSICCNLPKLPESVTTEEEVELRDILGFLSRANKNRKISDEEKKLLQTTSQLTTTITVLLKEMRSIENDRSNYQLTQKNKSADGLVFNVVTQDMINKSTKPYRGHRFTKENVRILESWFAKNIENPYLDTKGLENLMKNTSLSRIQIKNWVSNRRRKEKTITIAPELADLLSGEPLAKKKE
# Assay: PBM E-score (8-mer binding enrichment) (E-score (-0.5 to 0.5)); higher = stronger / more preferred TF binding; most listed sequences are background and not binding sites
# Conditions: protein concentration: 200 nM; construct: GST-full length
# Summary of the method: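 Universal all-10-mer Agilent arrays, fresh or stripped once, were converted to double-stranded form by primer extension. GST-tagged yeast transcription factors from PURExpress in vitro transcription/translation, full-length or DNA-binding domain only, were applied at about 100-200 nM and detected with fluorescent anti-GST. After masliner normalisation, the Universal PBM Analysis Suite scored each ungapped eight-base word together with its reverse complement by E-score.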
row,Sequence,PBM E-score
1,ATTAGACC,-0.162
2,CCGCAAAA,0.0413
3,CAACGACC,-0.126
4,GTGGGAAA,-0.064
5,CCGATTCA,-0.167
6,CGGGCCCA,-0.187
7,AGGACCCC,-0.271
8,AATCGAAA,-0.0545
9,GCAACGAC,-0.0848
10,CTCATGTA,0.454
11,AAAGCGGG,-0.178
12,CGTGACAC,0.141
13,CGCGACTC,-0.165
14,TATAGAGA,0.0261
15,CCATTTCA,-0.166
16,AGCAGATG,-0.175
17,ATATCGAC,-0.025
18,CGTATTCA,0.3
19,CGATTACG,0.274
20,AGGTTGAT,-0.169
21,ATACCAGC,-0.219
22,GACCTACC,-0.247
23,ATTTGAAG,-0.204
24,CAAGAGTA,0.128
25,CCGACTCA,-0.32

row,Sequence,PBM E-score
1,CGATCGGA,-0.192
2,GAGACCAC,-0.0272
3,AGTTTGTA,0.261
4,AATCGGGG,-0.203
5,GAGTTCGA,0.0987
6,GCTAGCAA,-0.0632
7,CGCGGGGC,-0.117
8,AATATAGC,-0.0955
9,AGAAGAAA,0.0158
10,ACTAGAGC,-0.161
11,CAGCCGCC,-0.333
12,GCTCTCGA,-0.111
13,ACATAGGA,0.218
14,GAGGTCCC,-0.299
15,TACTAGTA,0.356
16,TGCGCACA,0.0807
17,AATTATCG,0.13
18,ATATTACC,0.187
19,GCCCCTTA,-0.258
20,GCCCTAAA,-0.24
21,ACTCTTCG,-0.0072
22,CTACTGTC,-0.219
23,ACTCCAGT,-0.275
24,GAGTTTAC,0.24
25,ACCAAACG,-0.0998

row,Sequence,PBM E-score
1,ACTAACAT,0.361
2,AGTACGAG,-0.0225
3,CGACTTAG,-0.119
4,AACGGCGT,0.0517
5,GCTAACTA,0.0741
6,CGGTTCGC,-0.104
7,AAGGCGTA,0.0716
8,CCAAATGG,-0.0465
9,CGAGCAGC,-0.0224
10,GAGGATCA,-0.143
11,GTGGTTGA,0.00853
12,TGCGGCCA,-0.134
13,AATTTAGT,0.059
14,AGATGGAA,-0.0848
15,ACGTAGGG,-0.184
16,GCTTCGAC,-0.0494
17,ATAGGCTG,-0.0654
18,ACTATGTC,0.165
19,AGCCTTGC,-0.299
20,AGTCAGGG,-0.16
21,CCTGAGGA,-0.172
22,CAAGTGGA,-0.152
23,AAACTTTA,0.193
24,CGTACTAC,0.168
25,AATCTGGT,-0.0491

row,Sequence,PBM E-score
1,CACAACAA,0.233
2,AGCCGGAT,-0.228
3,GAAACTTA,0.163
4,CGTAGAAA,0.31
5,AGATTCAT,-0.0303
6,AGGAAGCA,-0.161
7,AGTTTTTA,0.243
8,TGAACCCA,-0.0905
9,CAGTCGCC,-0.418
10,AATAGGTG,-0.147
11,ACCCCTAC,-0.158
12,CTTGGACA,-0.198
13,AAAAACAT,0.297
14,CTTACACC,0.0787
15,AGCCCTAT,-0.198
16,GCTCAGCA,0.0776
17,TAGTCCGA,-0.111
18,GACCAAAC,-0.11
19,AAGTATTA,0.163
20,ACACCCGC,0.141
21,AGAGGAGC,-0.15
22,AACAGTTA,-0.0642
23,CCGCGAAC,-0.26
24,AATCCATG,0.0986
25,ACGCGCCG,0.0827

row,Sequence,PBM E-score
1,AAATTCAT,0.171
2,ATCGTCCG,-0.0155
3,CACCCGTA,-0.162
4,ACTTCATG,-0.0582
5,ACAGCCAC,-0.0654
6,CACCCTGG,-0.193
7,CCTCATGC,-0.294
8,AGGGCACT,-0.306
9,GAGGGAAA,-0.225
10,GCTACGCC,-0.226
11,CTCCCATA,-0.223
12,ATCTCTTG,-0.19
13,ATTGCAGA,0.07
14,CCGTAACC,-0.148
15,CCCAGACG,-0.234
16,ACTCTGAG,-0.078
17,CCCCTTTA,-0.0823
18,ACCATGGT,-0.0519
19,CGGTCGTC,-0.261
20,CACGGGAA,-0.00621
21,ATACTCTC,0.0862
22,CCCCCACC,-0.38
23,GAGAACCA,-0.0127
24,ATACCCCC,-0.311
25,CGGGAAAC,0.0207

row,Sequence,PBM E-score
1,AGGCTCAG,-0.0848
2,CCTAGGTA,-0.0267
3,GGCGGAAA,-0.136
4,CAAGTGAA,0.0541
5,TGAACGAA,-0.0603
6,ATACACCC,0.112
7,TAGAACGA,0.141
8,ACTCACCC,-0.232
9,ACTCCGCC,-0.252
10,AGGTTCGC,-0.226
11,AATATGTA,0.386
12,ACGACAGG,0.0531
13,AGCGTTGC,-0.0149
14,AAGAGAAG,0.0484
15,AGTCAGAG,-0.19
16,TAATCGCA,0.251
17,AGTGTTGC,0.169
18,CAACGGCG,-0.191
19,TAATTAAA,0.234
20,GGAGTCCA,0.00097
21,CATCCCTC,-0.257
22,ATCATTGG,0.0413
23,TAAATGCA,0.157
24,AGGTTCCA,-0.15
25,CCTCCAGA,-0.202

row,Sequence,PBM E-score
1,AATGCGGT,-0.186
2,AGGCAGAT,-0.103
3,ACTCGGGG,-0.134
4,ACATCGCT,0.166
5,CGGCAAAC,-0.0643
6,GGACTGTA,0.0258
7,AAAGTGTT,0.249
8,GCTCAGGA,0.0897
9,ACGAAGTA,0.0396
10,CGTTTTAG,0.00371
11,GGACCACA,-0.183
12,CAGCTTCG,-0.0555
13,GCGAGTTA,0.173
14,GACTTCGA,-0.0227
15,CGCAACCG,-0.176
16,GATTTAGA,-0.00065
17,AGTCCGCC,-0.349
18,CACGTACA,0.239
19,ATAGTAAG,0.0718
20,AGCGAGGC,-0.192
21,CGGGGTGA,-0.138
22,AAGCGTAC,0.0656
23,ATAGGATG,0.0195
24,AATCTATA,0.165
25,CATTGGAC,-0.0849

row,Sequence,PBM E-score
1,AGCCTACG,0.0399
2,CGTAAATC,0.227
3,TGAGGCCA,-0.0692
4,CCTTTTTA,0.156
5,CGAGGTTA,0.0651
6,ACTGTGCA,-0.0426
7,AAAACCTC,0.00349
8,GAGGGAGA,-0.338
9,CGCCCTGC,-0.122
10,ATTAAGCA,0.0508
11,CAGTGCTC,-0.133
12,TCGGTGAA,-0.144
13,AAGCTTAC,0.182
14,TAACATGA,0.462
15,TCCAATAA,0.101
16,AACGTACT,0.229
17,AAGCCCAG,-0.192
18,ATAGCCTG,0.00462
19,AAGGCAAT,-0.138
20,GGTGTTGA,0.124
21,CGCCCCGC,-0.177
22,ACACATCC,0.192
23,GACTGCAA,-0.182
24,ACATAGAC,0.229
25,AAAGGATT,0.0208

row,Sequence,PBM E-score
1,CAACCACA,0.0845
2,CTGACAAA,0.162
3,AAAGTGCT,-0.12
4,AAAAGGCA,0.0225
5,ATACTGGA,0.0598
6,AGCACCGA,-0.016
7,GCACTCAA,-0.0912
8,TGTACACA,0.418
9,ACCCCGGA,-0.0376
10,ATTAAGAC,0.0444
11,CCTGATTC,-0.222
12,CGCATAAA,0.154
13,ATATCACG,-0.0843
14,GGTTGAAC,0.081
15,ACCTGGGC,-0.287
16,AAGAATCA,-0.071
17,CATTAACG,0.277
18,ACACATGT,0.394
19,GCGTGTCC,0.142
